Measurements from the supplement of paper PMC12632987.
The full ranking holds about 4,500 sequences; the median of “median log2 fold change of GCK-ALFA target abundance (FLAG IP / Myc IP barcode read proportion)” is about 0.078, and the lowest 2% start at about -0.6. Some of the results follow.

B1: GBRAP_160_3987 (protein)
chain: EEKLEELIEFIEEETEEIKEMIKGQSHEERVVIIEGGMGEIIMELSSEESVSDEAEEKIAEIGDELVETIRKNPELSYEEIVELIDKAREEMIEILKKDF
B2: GBRAP_11_2865 (protein)
chain: KKEKLKEIAELLEEAEKVLEELLKEGTENEKLYKEALELLKKILELVKKYSDEADKKLAEEALKLLEEAKKNPEKAEEYVKQALAFVRVLRGNVLLDIEE
B3: GBRAP_160_4689 (protein)
chain: SEKLKEAKKFIKEEFDFVVSLWPDVSKEELAAAVRVAFGQIKLELEELGLLTEKVDKTIDEEEDKIVAAILANPNITKEELKAMLDAAAKKIFAELEKES
B4: GBRAP_39_5673 (protein)
chain: EEEEENEDVVSYLEGVAAKYLYETGKSLEEAYEEAKKILEKYAKENPELKELLEKLIKIAEEKGEEAKLVLIGIAVLIKEGTPKEEIKKLIEKVIKYFES
B5: GBRAP_11_2870 (protein)
chain: SKEALKKIAELAEELAKAIEQLLKEGVDNEELRKKITELLEELAELVKKHGDKAMQKLAEIAKELWEKALADPENAEQYLKEMLATVRVLAGQALLALEE
B6: GBRAP_52_6139 (protein)
chain: MRERLRRLAEEIIELVKEGKLEEARELAERIARELNDEELRLFAEEFARVFRELRPEEVDYAAEALEILEEALEEAGRPEEIISYLLGESTRALYEVELR
B7: GBRAP_184_5192 (protein)
chain: KVLEYTLEANNLEELKEKMEELKKLAEKEKADLYLIAKLPEVTEEMIKALMDALKEIKEKGYSKNITVLLEGKLTEEQIDLALELADKAGVKLTIALDEE
B8: GBRAP_128_3376 (protein)
chain: VNEEFLEKVRKLVEEMLTSSVEEVAELTREIVDLLETASLEEQEAAVEIILEYIPKFSVEKLDAIADVLRERRKTASPELQELLAEVEVEALNEAEELEE

The binders below were run against GABARAP, O95166 (assay: median log2 fold change of GCK-ALFA target abundance (FLAG IP / Myc IP barcode read proportion) (log2 ratio); each designed protein is fused to an ALFA-tag nanobody in HEK293 cells to bring the named protein to FLAG-tagged glucokinase (GCK); Myc marks an untargeted standard; higher = target protein stabilised (more abundant)). Conditions: target protein: 3xFLAG-MCP-GCK-ALFA reporter; HEK293 landing pad (RPLP).
Chain of GABARAP, O95166 (O95166 whole entry, the tested form may be a part): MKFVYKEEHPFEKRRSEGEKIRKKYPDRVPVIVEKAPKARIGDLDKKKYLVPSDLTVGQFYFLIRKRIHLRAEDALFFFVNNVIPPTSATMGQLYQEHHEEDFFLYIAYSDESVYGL
Experimental: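 LABEL-seq trans screen in HEK293 landing-pad cells. Each de novo designed 100-aa effector handle, binding the indicated effector (E3 ligase, DUB or autophagy protein), is fused to a constant NbALFA target handle and induced with 2 ug/mL doxycycline. A FLAG-MCP-GCK-ALFA target and a Myc-MCP standard reporter were transfected, and after 48 h circRNA barcodes were recovered by anti-FLAG and anti-Myc IP and sequenced. The value is the median across barcodes (at least 3 per design) of log2(FLAG/Myc read-proportion ratio), with the two transfection replicates pooled. Negative values mean degradation and positive values mean stabilisation of the target.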

| Binder | median log2 fold change |
| --- | --- |
| B1 | -0.283 |
| B2 | 0.211 |
| B3 | -0.0037 |
| B4 | 0.136 |
| B5 | -0.267 |
| B6 | -0.0979 |
| B7 | 0.127 |
| B8 | 0.0671 |
